Some of the results follow.
How the values were obtained:
HSkMC = human skeletal muscle cells; assay: cytotoxicity call (relative viability < 0.9); settings: 10 µM
HepG2 = assay: cytotoxicity call (relative viability < 0.9); settings: 10 µM
S. aureus RN4220 = assay: growth inhibition call (relative growth <= 0.2); settings: 50 µM

CC(C)(C)[S@@](=O)N1Cc2cc(C(=O)NCc3ccccc3F)nc(-c3cccc(-c4ccncc4)c3)c2[C@H]1CCO
inactive: cytotoxicity call (HSkMC) | cytotoxicity call (HepG2) | growth inhibition call (S. aureus RN4220)

C[C@H]1CN([C@@H](C)CO)C(=O)Cc2cc(NC(=O)CCN3CCOCC3)ccc2O[C@@H]1CN(C)CC1CC1
inactive: cytotoxicity call (HSkMC) | cytotoxicity call (HepG2) | growth inhibition call (S. aureus RN4220)

Cc1noc(C)c1NC(=O)Nc1cccc2c1O[C@H](CN(C)S(C)(=O)=O)[C@@H](C)CN([C@H](C)CO)C2=O
inactive: cytotoxicity call (HSkMC) | cytotoxicity call (HepG2) | growth inhibition call (S. aureus RN4220)

Cc1noc(C)c1NC(=O)N(C)C[C@@H]1OCCCC[C@H](C)Oc2ccc(NC(=O)NC3CCCCC3)cc2C(=O)N([C@H](C)CO)C[C@@H]1C
inactive: cytotoxicity call (HSkMC) | cytotoxicity call (HepG2) | growth inhibition call (S. aureus RN4220)

C[C@@H]1CN([C@H](C)CO)C(=O)c2cc(NS(=O)(=O)c3cn(C)cn3)ccc2O[C@@H]1CN(C)C(=O)NC1CCCCC1
inactive: cytotoxicity call (HSkMC) | cytotoxicity call (HepG2) | growth inhibition call (S. aureus RN4220)

C[C@@H]1NC(=O)NC1=O
inactive: cytotoxicity call (HSkMC) | cytotoxicity call (HepG2) | growth inhibition call (S. aureus RN4220)

Cn1c(=O)c2c(ncn2C[C@@H](O)COc2ccccc2)n(C)c1=O
inactive: cytotoxicity call (HSkMC) | cytotoxicity call (HepG2) | growth inhibition call (S. aureus RN4220)

CC(C)NC(=O)Nc1ccc2c(c1)C(=O)N(C)[C@H]1CC[C@@H](CC(=O)NCc3ccc(F)cc3)O[C@H]1CO2
inactive: cytotoxicity call (HSkMC) | cytotoxicity call (HepG2) | growth inhibition call (S. aureus RN4220)

C[C@H]1CN([C@@H](C)CO)C(=O)c2cc(NC(=O)CCCCCC(=O)Nc3ccccc3N)ccc2O[C@H]1CN(C)S(=O)(=O)c1cn(C)cn1
inactive: cytotoxicity call (HSkMC) | cytotoxicity call (HepG2) | growth inhibition call (S. aureus RN4220)

C[C@H]1CN([C@@H](C)CO)C(=O)c2cc(NS(=O)(=O)c3cn(C)cn3)ccc2O[C@@H]1CN(C)C(=O)Nc1ccccc1
inactive: cytotoxicity call (HSkMC) | cytotoxicity call (HepG2) | growth inhibition call (S. aureus RN4220)

COc1ccccc1CNC(=O)C[C@@H]1C[C@@H]2c3cc(NC(=O)Nc4ccc(C(F)(F)F)cc4)ccc3O[C@@H]2[C@H](CO)O1
inactive: cytotoxicity call (HSkMC) | cytotoxicity call (HepG2) | growth inhibition call (S. aureus RN4220)

O=C(C[C@H]1C[C@@H]2c3cc(NC(=O)NC4CCCC4)ccc3O[C@@H]2[C@@H](CO)O1)NCc1ccc(Oc2ccccc2)cc1
inactive: cytotoxicity call (HSkMC) | cytotoxicity call (HepG2) | growth inhibition call (S. aureus RN4220)

O=C(C[C@@H]1CC[C@@H](NC(=O)c2ccc(F)cc2)[C@@H](CO)O1)NCc1ccncn1
inactive: cytotoxicity call (HSkMC) | cytotoxicity call (HepG2) | growth inhibition call (S. aureus RN4220)

O=C(O)c1cc(-n2cnnn2)ccc1O
inactive: cytotoxicity call (HSkMC) | cytotoxicity call (HepG2) | growth inhibition call (S. aureus RN4220)

C[C@@H]1CCCCO[C@@H](CN(C)C(=O)Nc2ccc3c(c2)OCO3)[C@@H](C)CN([C@H](C)CO)C(=O)c2cc(NC(=O)Nc3ccc(F)cc3)ccc2O1
inactive: cytotoxicity call (HSkMC) | cytotoxicity call (HepG2) | growth inhibition call (S. aureus RN4220)

Cc1n[nH]c(C)c1S(=O)(=O)N1CCCC1
inactive: cytotoxicity call (HSkMC) | cytotoxicity call (HepG2) | growth inhibition call (S. aureus RN4220)

CO[C@@H]1CN(C)C(=O)c2cc(NC(C)=O)ccc2OC[C@H](C)N(S(=O)(=O)c2cn(C)cn2)C[C@H]1C
inactive: cytotoxicity call (HSkMC) | cytotoxicity call (HepG2) | growth inhibition call (S. aureus RN4220)

C[C@H](CO)N1C[C@H](C)[C@H](CN(C)Cc2ccc(C(=O)Nc3ccccc3N)cc2)Oc2ccc(NC(=O)Nc3ccccc3)cc2CC1=O
inactive: cytotoxicity call (HSkMC) | cytotoxicity call (HepG2) | growth inhibition call (S. aureus RN4220)

O=C(C[C@@H]1C[C@H]2c3cc(NS(=O)(=O)c4ccc(F)cc4)ccc3O[C@H]2[C@@H](CO)O1)NCc1ccccn1
inactive: cytotoxicity call (HSkMC) | cytotoxicity call (HepG2) | growth inhibition call (S. aureus RN4220)

CO[C@@H]1CN(C)C(=O)c2ccc(NS(C)(=O)=O)cc2OC[C@H](C)N(C(=O)CN(C)C)C[C@@H]1C
inactive: cytotoxicity call (HSkMC) | cytotoxicity call (HepG2) | growth inhibition call (S. aureus RN4220)

COc1cccc(S(=O)(=O)N(C)C[C@@H]2Oc3ncc(C#CCC(C)C)cc3C(=O)N([C@@H](C)CO)C[C@@H]2C)c1
inactive: cytotoxicity call (HSkMC) | cytotoxicity call (HepG2) | growth inhibition call (S. aureus RN4220)

COc1ccccc1-c1ccc2n(c1=O)C[C@@H]1[C@@H](CO)[C@H](C(=O)NCC3CC3)N(S(C)(=O)=O)[C@H]21
inactive: cytotoxicity call (HSkMC) | cytotoxicity call (HepG2) | growth inhibition call (S. aureus RN4220)

C[C@H](CO)N1C[C@H](C)[C@@H](CN(C)C(=O)Nc2ccc3c(c2)OCO3)Oc2ccc(NC(=O)CCN3CCOCC3)cc2CC1=O
inactive: cytotoxicity call (HSkMC) | cytotoxicity call (HepG2) | growth inhibition call (S. aureus RN4220)

O=C(Cc1ccccn1)NCC[C@H]1CC[C@@H](NC(=O)CN2CCOCC2)[C@H](CO)O1
inactive: cytotoxicity call (HSkMC) | cytotoxicity call (HepG2) | growth inhibition call (S. aureus RN4220)

COCCNC(=O)C[C@@H]1C[C@@H]2c3cc(NC(=O)CN(C)C)ccc3O[C@@H]2[C@H](CO)O1
inactive: cytotoxicity call (HSkMC) | cytotoxicity call (HepG2) | growth inhibition call (S. aureus RN4220)

COCCN1C(=O)C[C@@H]2[C@@H]1CCN2S(=O)(=O)c1cn(C)cn1
inactive: cytotoxicity call (HSkMC) | cytotoxicity call (HepG2) | growth inhibition call (S. aureus RN4220)

COCC(=O)N(C)C[C@@H]1Oc2cc(C#Cc3ccccc3)ccc2S(=O)(=O)N([C@@H](C)CO)C[C@H]1C
inactive: cytotoxicity call (HSkMC) | cytotoxicity call (HepG2) | growth inhibition call (S. aureus RN4220)

C[C@@H]1CN([C@@H](C)CO)C(=O)c2cc(NC(=O)c3ccccc3)ccc2O[C@@H](C)CCCCO[C@H]1CN(C)Cc1ccc2c(c1)OCO2
inactive: cytotoxicity call (HSkMC) | cytotoxicity call (HepG2) | growth inhibition call (S. aureus RN4220)

Reference: the antibiotic and cytotoxicity screens of Wong et al. (2023)
